# Measured values from publication PMC4336329 (PLoS ONE, 2015).
# Hit rate of the full screen: of about 310,000 compounds, about 2,200 (0.71%) showed an effect of 50% or more. Effects have a minus sign here. The list shows a part of the results.
# Target: human ether-à-go-go-related gene (hERG) potassium channel (human, UniProt Q12809)
# Test: primary screen, population patch clamp on CHO cells stably expressing hERG
# Chain of human ether-à-go-go-related gene (hERG) potassium channel (Q12809 whole entry, looked up): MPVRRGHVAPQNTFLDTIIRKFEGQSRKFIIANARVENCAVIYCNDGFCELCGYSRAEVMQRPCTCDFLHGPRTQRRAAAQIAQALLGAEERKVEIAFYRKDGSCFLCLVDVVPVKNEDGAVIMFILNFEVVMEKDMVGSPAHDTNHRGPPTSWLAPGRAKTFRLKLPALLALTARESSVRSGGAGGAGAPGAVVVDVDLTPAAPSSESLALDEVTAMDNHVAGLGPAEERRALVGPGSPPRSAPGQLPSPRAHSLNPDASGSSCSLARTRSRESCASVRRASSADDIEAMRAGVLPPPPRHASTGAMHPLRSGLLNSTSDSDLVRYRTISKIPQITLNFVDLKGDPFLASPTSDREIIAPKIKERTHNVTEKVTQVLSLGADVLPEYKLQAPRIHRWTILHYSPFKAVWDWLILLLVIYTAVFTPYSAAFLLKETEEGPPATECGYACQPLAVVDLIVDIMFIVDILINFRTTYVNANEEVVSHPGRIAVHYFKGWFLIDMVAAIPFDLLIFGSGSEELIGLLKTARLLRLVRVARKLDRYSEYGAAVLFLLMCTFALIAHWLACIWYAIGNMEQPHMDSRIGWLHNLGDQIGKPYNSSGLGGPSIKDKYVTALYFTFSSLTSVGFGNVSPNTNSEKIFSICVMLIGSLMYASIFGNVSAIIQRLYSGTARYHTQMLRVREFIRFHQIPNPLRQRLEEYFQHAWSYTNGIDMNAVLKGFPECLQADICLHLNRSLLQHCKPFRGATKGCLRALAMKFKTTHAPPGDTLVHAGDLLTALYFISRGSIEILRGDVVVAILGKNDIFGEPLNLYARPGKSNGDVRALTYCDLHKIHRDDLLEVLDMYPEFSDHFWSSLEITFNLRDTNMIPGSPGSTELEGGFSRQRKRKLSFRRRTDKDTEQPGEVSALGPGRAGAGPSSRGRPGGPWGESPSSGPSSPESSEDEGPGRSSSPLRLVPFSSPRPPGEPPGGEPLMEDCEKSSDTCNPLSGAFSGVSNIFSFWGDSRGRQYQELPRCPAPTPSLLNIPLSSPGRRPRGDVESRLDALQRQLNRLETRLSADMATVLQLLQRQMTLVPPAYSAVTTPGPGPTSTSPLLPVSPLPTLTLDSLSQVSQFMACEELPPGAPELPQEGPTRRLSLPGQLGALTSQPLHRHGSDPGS
row,SMILES,"hERG current change (%, negative = inhibition) at 1uM [%]"
1,COc1cccc(C(=O)n2ccc(-c3cccs3)n2)c1,12.2
2,COc1ccc(C(=O)N2CCCC(CNC(=O)c3ccc(F)cc3)C2)cc1OC (stereo not drawn),2.4
3,Cc1cc2oc(=O)cc(CN3CCOCC3)c2cc1C(C)C,-2.79
4,Cc1cc(C)cc(C(=O)Nc2nnc(SCC(=O)N3CCCc4ccccc43)s2)c1,8.23
5,Cc1ccc(Sc2ccc(C(=O)N3CCOCC3)cc2[N+](=O)[O-])cc1,0.678
6,CC(NC(=O)NCCCC(=O)O)(C(F)(F)F)C(F)(F)F,3.96
7,CN(C)c1ccc(P(=O)(Nc2ccccc2)N2CCOCC2)c(NC(=O)c2cccs2)c1 (stereo not drawn),7.94
8,Cc1cccc(NC(=O)Cn2cc(C(=O)c3ccco3)c3ccccc32)c1,-0.405
9,O=C(Nc1ccccc1OCc1ccccc1)c1ccccc1Br,17.8
10,O=C(CN1C(=O)C2CC=CCC2C1=O)N1CCN(c2ccc([N+](=O)[O-])cc2)CC1 (stereo not drawn),-64.2
11,CC(=O)NC1CC2CCCC(C1)N2CC(=O)N1CCCc2ccccc21 (stereo not drawn),6.84
12,COCCN(CC(=O)Nc1ccccc1C(F)(F)F)C(=O)/C=C/c1cc(Cl)c2c(c1)OCO2,12.6
13,O=C(Nc1ccon1)c1sc2cc(F)ccc2c1Cl,4.69
14,CCCCCn1c(=O)[nH]c2cc(C(=O)NCCCN3CCCCC3C)ccc2c1=O (stereo not drawn),-18.8
15,CCOC(=O)/C(C#N)=C1/C=Cc2ccccc2N1CC,6.62
16,COc1cccc(CNCc2ccc(OC)cc2OC)c1.O=C(O)C(=O)O,9.26
17,Cc1ccc(NC(=O)c2ncc(Cl)c(Cl)c2Cl)cc1C,7.02
18,CCNC(=S)Nc1ccc(C)c(S(=O)(=O)Nc2ccccc2OC)c1,6.96
19,CC1(C)CC(=O)C(C(=O)/C=C/NCCc2ccccc2)C(=O)C1,4.59
20,Cc1ccc(SCc2cn3ccccc3n2)cc1,8.82
21,O=C1c2oc3ccc(F)cc3c(=O)c2C(c2ccccc2)N1CC1CCCO1 (stereo not drawn),1.38
22,COc1ccc(N2C(=S)N=C(Nc3ccccc3)C23CCCCC3)cc1,13.1

row,SMILES,"hERG current change (%, negative = inhibition) at 1uM [%]"
1,COc1ccccc1C(=O)n1nc(-c2ccco2)nc1N,11.9
2,O=[N+]([O-])c1cc2c(cc1/C=N/Nc1nc(Nc3ccccc3)nc(N3CCCCC3)n1)OCO2,4.28
3,O=C(OCC(=O)N1CCc2ccccc2C1)c1cccs1,11.7
4,COc1cc2c(cc1OC)CN(S(C)(=O)=O)CC2,16.5
5,COCC(=O)Nc1cccc(C(F)(F)F)c1,9.32
6,COc1ccc(OC)c(S(=O)(=O)NCc2nc3nc(C)cc(C)n3n2)c1,11.8
7,COc1cc(OC)cc(C(=O)NNC(=O)c2cc(S(=O)(=O)N3CCOCC3)ccc2F)c1,1.59
8,COc1ccc(N(Cc2cc(=O)[nH]c3ccccc23)C(C)=O)cc1,14
9,COc1ccc(Cn2nnnc2C(c2ccc(N(C)C)cc2)N2CCC(C(N)=O)CC2)cc1 (stereo not drawn),0.46
10,CC1=C(C(=O)Nc2ccccc2Cl)C(c2ccc(N(C)C)cc2)NC(=O)N1 (stereo not drawn),4
11,Cc1ccc(/C=N/n2c(C3CCCCC3)n[nH]c2=S)cc1,17.4
12,CNC(=O)c1[nH]cnc1C(=O)Nc1ccccc1OC,6.48
13,CCCCNS(=O)(=O)c1ccc2nc(SCC(=O)c3ccc(C#N)cc3)[nH]c2c1,7.66
14,CCCN[C@H]1CCc2nc(N)sc2C1.Cl,13.9
15,CCCOc1ccc(C(=O)OCC(=O)NCCc2ccc(OCC)c(OCC)c2)cc1OC,11.9
16,CC1=Nc2cccc3cccc(c23)N1C,6.23
17,CCCCC1=CC2=CC(=O)C(C)(OC(=O)CC)C(=O)C2=CN1Cc1ccco1 (stereo not drawn),-0.305
18,CCc1ccc(NC(=O)C2C3/C=C\CCCCC32)cc1 (stereo not drawn),25.5
19,Nc1c(/C=C2/C=CC(=O)C(O)=C2)c(=O)nc2sc(CC(=O)N3CCCC3)nn12,13.3
20,CCc1nc(C)ccc1OCC(=O)N1CCc2c([nH]c3ccccc23)C1c1ccccn1 (stereo not drawn),3.6
21,COCCN(C(=O)COC(=O)/C=C/c1ccc2ccccc2n1)c1c(N)n(Cc2ccccc2)c(=O)[nH]c1=O,11.1
22,COc1ccc2oc(C(=O)OCC(=O)Nc3ccc(OC)c(S(N)(=O)=O)c3)c(C)c2c1,7.56

row,SMILES,"hERG current change (%, negative = inhibition) at 1uM [%]"
1,CN1CCc2nc(SC(C(=O)O)c3ccccc3)c(C#N)c(-c3cccs3)c2C1 (stereo not drawn),18.1
2,CCCCN(C(=O)C1CSC2(C)CCC(=O)N12)c1c(N)n(CC(C)C)c(=O)[nH]c1=O (stereo not drawn),13.4
3,CN(C)CCCC(C)(O)C(C)(C)c1ccccc1.Cl (stereo not drawn),5.53
4,O=c1cc(CSc2ccc(Cl)cc2)nc(N2CCCCC2)[nH]1,11.5
5,CCCCC1=CC2=CC(=O)C(C)(OC(=O)CC)C(=O)C2=CN1CCc1c[nH]c2ccccc12 (stereo not drawn),6.29
6,COCC1CCCCN1C(=O)c1cccc(OC2CCN(C(=O)C3CC3)CC2)c1 (stereo not drawn),0.726
7,CCOC(=O)C1=C(SCC(=O)Nc2ccccc2)NC(=O)C(C#N)C12CCCCC2 (stereo not drawn),4.71
8,CCOC(=O)[C@@H]1[C@H]2COc3ccccc3[C@@H]2N2C(=O)N(c3ccc(C)cc3)C(=O)[C@]12C,6.27
9,CCCCC1=CC2=CC(=O)C(C)(OC(=O)CC)C(=O)C2=CN1CC(C)C (stereo not drawn),7.45
10,COc1ccc(/C=C/C(=O)c2ccccc2)cc1Cn1nnc2ccccc21,4.42
11,Br.CCOC(=O)C(CC)(CCC(=O)OC)c1csc(Nc2ccccc2O)n1 (stereo not drawn),12.6
12,O=[N+]([O-])c1cc(S(=O)(=O)Nc2ccccc2)ccc1N1CCN(c2ccccc2)CC1,5.34
13,O=C(c1ccc(Cl)cc1)N(Cc1cccs1)C1CCS(=O)(=O)C1 (stereo not drawn),-3.91
14,COC(=O)C(NC(=O)C(C)NC(=O)OCc1ccccc1)C(C)C (stereo not drawn),15.3
15,C=CCn1c(SCc2ccc(C(=O)OC)cc2)nnc1-c1sc(N)nc1C,-5.74
16,CCOC(=O)c1c(C)[nH]c(C(=O)N/N=C\c2ccccc2O)c1C,4.25
17,CCn1cc(CNC(=O)c2ccc3nc(Cc4ccccc4F)oc3c2)cn1,11.3
18,O=C(NCC1CCCO1)C(=Cc1cccc([N+](=O)[O-])c1)C(=O)NCC1CCCO1 (stereo not drawn),6.59
19,Cc1nn(-c2ccccc2)c(N2CCCC2)c1/C=N/NC(=O)C1CC1,6.34
20,O=C(NCc1ccc(F)cc1)c1c(O)c2cccc3c2n(c1=O)CCC3,4.88
21,O=P(O)(O)O.Oc1ccc(Br)cc1/C=N/N1CCCCC1,-3.79
22,Cn1nc(C(=O)Nc2cccc(S(=O)(=O)N3CCCC3)c2)c2ccccc2c1=O,8.34

row,SMILES,"hERG current change (%, negative = inhibition) at 1uM [%]"
1,CC(=O)c1ccc(NC(=O)C2(c3ccccc3)CC2(Cl)Cl)cc1 (stereo not drawn),5.11
2,COc1ccccc1CC(=O)NNS(=O)(=O)c1ccccc1[N+](=O)[O-],10.9
3,COc1cc(-c2nn3c(-c4cccc(C)c4)nnc3s2)cc(OC)c1OC,11.7
4,CNC(=O)COC(=O)CCC(=O)c1cccs1,-2.28
5,Cc1ccc(Cl)cc1N1CCN(S(=O)(=O)c2c(C)noc2C)CC1,7.27
6,Cc1ccc(C)c(Cn2nnc3c(=O)[nH]c(C(=O)NCC4CCCO4)nc32)c1 (stereo not drawn),-10.4
7,O=C(COC(=O)c1cc[n+]([O-])cc1)Nc1ccc([N+](=O)[O-])cc1Cl,5.02
8,CN(C)C(=O)COC(=O)/C=C/c1cn(-c2ccccc2)nc1-c1cccs1,4.82
9,CC(C)(C)C1COc2ccccc2N1C(=O)c1cccc(Cl)c1 (stereo not drawn),12.3
10,CCCOCC(O)CC(CC)C(=O)NNC(=S)Nc1ccccc1 (stereo not drawn),11.3
11,CC(=O)c1sc(NC(=O)C2CCCN2S(=O)(=O)c2ccccc2F)nc1C (stereo not drawn),13.9
12,Cn1nc(C(F)(F)F)c(-c2cccc(C(F)(F)F)c2)c1NC(=O)CSCC(=O)O,13
13,COc1ccc(OCC(=O)N/N=C/c2ccc(N(C)C)cc2)cc1,11.6
14,Cc1cc(C)c2nc(NNC(=O)c3cc(=O)c4ccccc4o3)sc2c1,11.2
15,Cc1cccc(OCCCC(=O)Nc2ccc(S(=O)(=O)Nc3nccs3)cc2)c1C,5.13
16,COc1nc(NC2CCCCC2)nc(NC(C)(C)C)n1,4.9
17,c1cc(-c2sc(-c3ccncc3)c(-c3ccncc3)c2-c2ccncc2)ccn1,-12.7
18,CCOC(=O)C1CCCN(C(=O)c2cn(CC)c(=O)c3cc(OC)c(OC)cc23)C1 (stereo not drawn),19.9
19,CS(=O)(=O)N1CCc2cc(C(=O)Nc3ccccc3)ccc21,0.329
20,Cc1cccc(Cl)c1OCCCCn1ccnc1,-5.39
21,O=C(NCCCn1ccnc1)c1cc(S(=O)(=O)N2CCOCC2)ccc1F,13.4
